# According to the supplement of paper PMC4166925:
# ± gives the standard deviation of the averaged measurements. Whole data set: some 33,000 sequences, median “E-score (dimensionless, -0.5 to 0.5)” near -0.046, cut for the highest 2% near 0.36. This is one part of the list.
# Tested on: T1, SpTbr T-box DNA-binding domain (GST fusion)
# T1 sequence: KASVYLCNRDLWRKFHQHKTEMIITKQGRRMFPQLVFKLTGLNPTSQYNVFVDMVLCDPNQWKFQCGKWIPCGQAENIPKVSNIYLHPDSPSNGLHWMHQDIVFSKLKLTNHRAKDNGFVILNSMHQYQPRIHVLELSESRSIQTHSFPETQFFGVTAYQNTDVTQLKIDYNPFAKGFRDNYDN
# Assay: PBM E-score of 8-mer (E-score (dimensionless, -0.5 to 0.5)); Tbr is Tbrain of the sea star Patiria miniata (Pm) or the sea urchin Strongylocentrotus purpuratus (Sp); higher = stronger binding preference; most listed sequences are background and not binding sites
# Settings: the construct has about 5 more residues each side
# Outline: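 Universal Agilent oligonucleotide arrays, made double-stranded by primer extension, were incubated with 200 nM GST-fused Tbr T-box DNA-binding domain in PBS (pH 7.5). The protein was expressed in BL21 E. coli at 20 °C and purified by glutathione affinity chromatography. After scanning and quantification, the Universal PBM Analysis Suite assigned an enrichment E-score to each ungapped 8-mer, averaged over duplicate arrays.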
row,Sequence,PBM E-score of 8-mer
1,GATCATAC,0.0294 ± 0.025
2,AGGAATGG,-0.177 ± 0.0048
3,AGACTTCC,-0.1389 ± 0.00085
4,AATACACC,0.0626 ± 0.014
5,CGACCTAG,0.0184 ± 0.034
6,ATACAAGC,-0.0763 ± 0.051
7,CGACTGGC,0.0378 ± 0.04
8,ACTTTATA,-0.0694 ± 0.018
9,ACATGTGA,0.292 ± 0.054
10,CAGGGTGG,-0.011 ± 0.049
11,CTGTTGAC,0.148 ± 0.038
12,CAAAATAA,-0.101 ± 0.024
13,ACGTCCTC,-0.019 ± 0.036
14,AGATACGC,0.0233 ± 0.019
15,CACATATC,0.32 ± 0.011
16,ATCTGAGA,-0.11 ± 0.092
17,ATTCTACC,-0.105 ± 0.03
18,GATGACCA,0.0254 ± 0.0096
19,ATTGACTC,-0.0992 ± 0.08
20,ATGTTCGA,-0.129 ± 0.03
21,GTCAGGGA,-0.23 ± 0.047
22,AGCATAAC,-0.0666 ± 0.0083
23,GCTCGGTA,-0.159 ± 0.081
24,TACGGATA,-0.182 ± 0.13
25,GAATTGGC,-0.065 ± 0.0065

row,Sequence,PBM E-score of 8-mer
1,ATAAACAT,-0.0537 ± 0.084
2,GTATGCAA,-0.124 ± 0.037
3,ACCGTGTA,0.056 ± 0.098
4,CAATCCAC,0.0665 ± 0.047
5,TAAGCTGA,-0.159 ± 0.038
6,AACCGGTA,0.000605 ± 0.066
7,TAACCTAA,0.0477 ± 0.014
8,CTGAAGAA,-0.0918 ± 0.044
9,CTCACCAC,0.218 ± 0.037
10,TCATATAA,-0.186 ± 0.029
11,TAAATTCA,-0.13 ± 0.022
12,CCACCAGA,0.0229 ± 0.0042
13,GTACATCA,-0.0824 ± 0.041
14,ATCGAATA,-0.123 ± 0.066
15,AGCTGCCT,0.13 ± 0.093
16,CTCTAGAA,-0.0987 ± 0.035
17,GGGAGAGA,0.00894 ± 0.011
18,CCTTGGGC,-0.00559 ± 0.0056
19,AGCTTTAG,-0.0752 ± 0.035
20,ACGGTCCG,0.0727 ± 0.023
21,GGGCACAA,-0.0396 ± 0.039
22,GTCGAAGA,-0.15 ± 0.016
23,CGACGTAC,-0.0864 ± 0.048
24,CGTAGACG,-0.122 ± 0.051
25,AACAACTC,0.175 ± 0.03

row,Sequence,PBM E-score of 8-mer
1,CGCCCTAC,-0.0178 ± 0.022
2,GCGTGTAA,0.0697 ± 0.022
3,ATATGAGA,-0.13 ± 0.05
4,CCCATTAG,-0.151 ± 0.021
5,ACTAATTG,0.0139 ± 0.029
6,GAACGTGC,0.0826 ± 0.055
7,ACGTCGAG,0.0316 ± 0.0028
8,GAGAGTGC,0.235 ± 0.029
9,CGTGCAAA,0.146 ± 0.024
10,GGCAAACA,0.0235 ± 0.096
11,CCAGATCC,0.0296 ± 0.0035
12,CGACTGCA,-0.155 ± 0.0016
13,AACCGACT,-0.05 ± 0.035
14,AACAAACC,-0.0382 ± 0.015
15,AGTGACTA,0.0892 ± 0.051
16,ACAGATGC,0.0542 ± 0.079
17,AGGCCATG,-0.322 ± 0.048
18,GCAAAAAC,0.158 ± 0.023
19,CTCAAGAC,-0.173 ± 0.049
20,ACCTATAG,-0.0484 ± 0.021
21,TCAGTAAA,-0.113 ± 0.0082
22,CCTCATAC,0.00052 ± 0.034
23,CGCCGCGA,0.199 ± 0.049
24,GTTAACTA,0.1499 ± 0.001
25,CGTCCCAA,-0.179 ± 0.025

row,Sequence,PBM E-score of 8-mer
1,CTCACCCC,0.304 ± 0.027
2,CATCTCCC,-0.128 ± 0.05
3,ATGGCCAC,-0.0988 ± 0.0035
4,TAAGAGGA,-0.0506 ± 0.021
5,ATGAAAAT,-0.017 ± 0.05
6,CAGTTCAG,-0.2217 ± 0.0013
7,AAAATTAC,0.0569 ± 0.024
8,AAGGCGAG,0.3214 ± 0.0018
9,GTTGAAAA,0.0433 ± 0.018
10,CCGTCTAA,-0.29 ± 0.029
11,CTGTAAGA,-0.0227 ± 0.0078
12,AACGGACT,0.013 ± 0.0058
13,ACGGCACA,0.06003 ± 7.8e-05
14,ACATCCAA,0.0357 ± 0.0079
15,GTCCTCCA,-0.0942 ± 0.066
16,GTTTATTA,-0.189 ± 0.087
17,ATCGGAAG,-0.0552 ± 0.027
18,TAATAGTA,-0.19 ± 0.028
19,CCTAGGAG,-0.0464 ± 0.051
20,GGGCGGAA,-0.23 ± 0.02
21,CCGATCAA,0.0887 ± 0.014
22,GGATGAAC,-0.09 ± 0.072
23,CCCTAAAA,0.00853 ± 0.054
24,GTCGGCCA,-0.0885 ± 0.016
25,ACCAAGCG,0.162 ± 0.011

row,Sequence,PBM E-score of 8-mer
1,CCAGACTA,-0.319 ± 0.012
2,TACATGTA,-0.244 ± 0.085
3,CCCCCCAC,-0.243 ± 0.031
4,CCAATTAG,0.06 ± 0.0055
5,ATGGGACC,-0.181 ± 0.037
6,AGTAACAC,0.3552 ± 0.0029
7,CTCGGGAA,-0.0453 ± 0.049
8,CTAGCGCA,-0.0724 ± 0.049
9,CAGAGCTA,-0.37 ± 0.028
10,AAAAGATT,-0.183 ± 0.048
11,CGCACAAG,0.0889 ± 0.0094
12,CAATACAA,-0.243 ± 0.0065
13,GGTGCCTA,0.0923 ± 0.1
14,CACATTTC,0.316 ± 0.055
15,CAGGGAGC,-0.115 ± 0.055
16,CATAACTA,-0.0516 ± 0.013
17,GAGGAGAA,-0.133 ± 0.018
18,CGGGTACG,-0.126 ± 0.037
19,CTTAGCCA,0.0171 ± 0.014
20,CTCAGTGC,-0.00873 ± 0.043
21,ACGAAGAG,-0.0962 ± 0.029
22,AGAGCTAA,-0.0488 ± 0.023
23,CCGGATGC,-0.0834 ± 0.055
24,AAGGAGAA,-0.247 ± 0.045
25,ATACTCTG,-0.126 ± 0.019

row,Sequence,PBM E-score of 8-mer
1,ATAGTTGA,-0.0287 ± 0.0013
2,ACCCAACA,0.139 ± 0.025
3,CTTGATTC,-0.0753 ± 0.011
4,ATCTAATC,-0.0658 ± 0.017
5,ACAGAAGG,0.09 ± 0.084
6,CTTGAGTA,-0.142 ± 0.079
7,CTAGTAAG,-0.0912 ± 0.035
8,ACGCTACT,0.0962 ± 0.058
9,ATTTATAA,-0.00806 ± 0.035
10,CAGGCAGC,-0.0447 ± 0.042
11,AGATCATC,0.0451 ± 0.065
12,ACAGCCTG,0.0918 ± 0.017
13,CGGCACAC,0.188 ± 0.01
14,CATGATGG,-0.123 ± 0.0069
15,GAAGCAGC,-0.131 ± 0.072
16,AGGTAGCC,-0.254 ± 0.054
17,CATCGGCC,-0.26 ± 0.0059
18,CATATTGC,0.0771 ± 0.014
19,ATTGTTGA,0.196 ± 0.0023
20,AAGTAGTG,0.183 ± 0.041
21,ATAACACA,0.35 ± 0.028
22,ATGCAAGC,-0.131 ± 0.037
23,GGTAGCAA,0.139 ± 0.031
24,AGTTAGAC,-0.231 ± 0.018
25,ATAGATCA,-0.181 ± 0.016

row,Sequence,PBM E-score of 8-mer
1,AGTCAGAA,-0.163 ± 0.029
2,CTGGCAAC,0.197 ± 0.02
3,TATCTAGA,-0.0961 ± 0.074
4,AAGTAATG,0.00825 ± 0.0022
5,ATGTGGCA,0.2551 ± 0.0021
6,AGTTCGCC,0.0613 ± 0.039
7,AATGCTAG,-0.09 ± 0.015
8,CGGACGGC,-0.157 ± 0.075
9,AAGCGATA,0.2613 ± 0.002
10,CGGAGATC,-0.163 ± 0.018
11,CAACTCTA,-0.0379 ± 0.031
12,GTCAATAA,0.129 ± 0.034
13,TATGATGA,-0.0739 ± 0.059
14,ACCTTATG,0.054 ± 0.036
15,CGCTACAA,0.107 ± 0.069
16,GCGGGCGA,-0.0188 ± 0.08
17,AAGTTTTG,-0.0157 ± 0.057
18,CGAAACGA,0.161 ± 0.0022
19,CAGTCGGA,-0.0497 ± 0.079
20,AGATCTAC,-0.0366 ± 0.077
21,ATAGATGC,-0.00715 ± 0.049
22,GACCCGTA,-0.0138 ± 0.012
